Data taken from the supplement of paper PMC8007513.
Where a name gives a salt, the structure may show the parent alone. ± gives the standard error. Out of some 1,300 compounds screened, about 75 (6%) showed an effect of 50% or more. This is one part of the list.

Tested on: Trichoderma virens ATCC 9645
Assay: growth yield (OD600) relative to untreated control; higher = less growth inhibition
Conditions: compound concentration: 100 uM
Procedure, shortened: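 Trichoderma virens ATCC 9645 spores from 7-day potato dextrose agar plates were suspended in potato dextrose broth at 15,000 spores ml^−1. Aliquots of 100 μl with library compounds at 100 μM final, with or without a co-applied biocide at 200 ng ml^−1, were grown in 96-well plates at 30 °C. OD600 was read at 40 h and 72 h on a BioTek EL800. Growth is expressed relative to the control without either agent, as means of duplicate screens.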

| Structure (SMILES) | growth yield (40 h) | growth yield (72 h) |
| --- | --- | --- |
| CCN(CC)C(=S)SSC(=S)N(CC)CC [Disulfiram] | 27.2 ± 17% | 67.8 ± 12% |
| C/C(=C(\CCOP(=O)(O)O)SC(=O)c1ccccc1)N(C=O)Cc1cnc(C)nc1N [Benfotiamine] | 99.75 ± 0.64% | 96.38 ± 0.1% |
| Nc1c2c(nc3ccccc13)CCCC2 [Tacrine hydrochloride] | 104 ± 5.1% | 106 ± 3.7% |
| CCCCN(CCCC)CCC(O)c1cc2c(Cl)cc(Cl)cc2c2cc(C(F)(F)F)ccc12 (stereo not given) [Halofantrine hydrochloride] | 25.6 ± 6.2% | 95.9% |
| C#C[C@]1(O)CC[C@H]2[C@@H]3CCc4cc(O)ccc4[C@H]3CC[C@@]21C [Ethinylestradiol] | 79.3 ± 4.3% | 80.1 ± 1.7% |
| CCOC(=O)C1=C(C)NC(C)=C(C(=O)OCC)C1c1ccccc1/C=C/C(=O)OC(C)(C)C [Lacidipine] | 96.1 ± 4.6% | 96.3 ± 5.7% |
| CCOc1cc(CC(=O)N[C@@H](CC(C)C)c2ccccc2N2CCCCC2)ccc1C(=O)O [Repaglinide] | 113 ± 3.3% | 103 ± 2.7% |
| CC(=O)OCC(=O)[C@@]1(O)[C@H](C)C[C@H]2[C@@H]3CCC4=CC(=O)C=C[C@]4(C)[C@@]3(F)[C@@H](O)C[C@@]21C [Dexamethasone acetate] | 102 ± 4% | 103 ± 3.7% |
| COc1ncnc(NS(=O)(=O)c2ccc(N)cc2)c1OC [Sulfadoxine] | 91 ± 9.4% | 101 ± 2.6% |
| COc1c(N2C[C@@H]3CCCN[C@@H]3C2)c(F)cc2c(=O)c(C(=O)O)cn(C3CC3)c12 [Moxifloxacin] | 93.88 ± 0.48% | 92 ± 3% |
| COc1ccc(C(=O)c2ccccc2)c(O)c1 [Oxybenzone] | 53.8 ± 4.3% | 62.9% |
| COc1ccc(C(=O)CC(=O)c2ccc(C(C)(C)C)cc2)cc1 [Avobenzone] | 88.6 ± 5.1% | 93.8 ± 4.8% |
| Nc1nc2c(ncn2COCCO)c(=O)[nH]1 [Acyclovir] | 103.7 ± 0.48% | 101 ± 1.7% |
| CCCCCN(CCCCC)C(=O)C(CCC(=O)O)NC(=O)c1ccc(Cl)c(Cl)c1 (stereo not given) [Lorglumide sodium salt] | 106 ± 3.6% | 103 ± 1.6% |
| CC(C)(C)NC(=O)[C@@H]1C[C@@H]2CCCC[C@@H]2CN1C[C@@H](O)[C@H](Cc1ccccc1)NC(=O)[C@H](CC(N)=O)NC(=O)c1ccc2ccccc2n1 [Saquinavir mesylate] | 110 ± 3.3% | 107 ± 3.1% |
| CCCC1O[C@@H]2C[C@H]3[C@@H]4CCC5=CC(=O)C=C[C@]5(C)[C@H]4[C@@H](O)C[C@]3(C)[C@]2(C(=O)CO)O1 (stereo not given in full) [Budesonide] | 102.9 ± 0.64% | 105 ± 2.1% |
| CC(C(=O)O)c1cccc(C(=O)c2ccccc2)c1 (stereo not given) [Ketoprofen] | 88.315 ± 1e-14% | 87.78 ± 0.52% |
| CC(C)NC[C@H](O)COc1cccc2ccccc12 [(S)-propranolol hydrochloride] | 106 ± 5.9% | 104 ± 2.3% |
| CN1C(=O)OC(C)(C)C1=O [Trimethadione] | 106 ± 2.5% | 102.9 ± 0.73% |
| CC(=O)CCCCn1c(=O)c2c(ncn2C)n(C)c1=O [Pentoxifylline] | 103 ± 2.1% | 104.3 ± 0.73% |
| CN(C/C=C/c1ccccc1)Cc1cccc2ccccc12 [Naftifine hydrochloride] | 15.6 ± 1.6% | 55.5 ± 4.3% |
| OCCN1CCN(CCCN2c3ccccc3C=Cc3ccccc32)CC1 [Opipramol dihydrochloride] | 91.3 ± 1.1% | 98.1 ± 1.4% |

| Structure (SMILES) | growth yield (40 h) | growth yield (72 h) |
| --- | --- | --- |
| CN(C)CCCSC(=N)N [Dimaprit dihydrochloride] | 102 ± 3.3% | 99.5 ± 3.2% |
| Cc1onc(-c2c(F)cccc2Cl)c1C(=O)N[C@@H]1C(=O)N2[C@@H]1SC(C)(C)[C@@H]2C(=O)O [Flucloxacillin sodium] | 95.9 ± 2.9% | 95.86 ± 0.84% |
| C[C@H](Cc1cc2c(c(C(N)=O)c1)N(CCCO)CC2)NCCOc1ccccc1OCC(F)(F)F [Silodosin] | 105% | 100 ± 2.3% |
| O=C(NCCN1CCOCC1)c1ccc(Cl)cc1 [Moclobemide] | 102 ± 2.1% | 106 ± 2% |
| CCCCCNC(=N)N/N=C/c1c[nH]c2ccc(OC)cc12 [Tegaserod maleate] | 5.24 ± 0.16% | 3.88 ± 0.52% |
| NS(=O)(=O)c1cc(Cl)c(Cl)c(S(N)(=O)=O)c1 [Dichlorphenamide] | 103 ± 2.1% | 101 ± 1.5% |
| CCN1CCCC(OC(=O)C(c2ccccc2)c2ccccc2)C1 (stereo not given) [Piperidolate hydrochloride] | 106 ± 0.79% | 105 ± 1.8% |
| C[C@@H]1C[C@H]2[C@@H]3C[C@H](F)C4=CC(=O)C=C[C@]4(C)[C@@]3(Cl)[C@@H](O)C[C@]2(C)[C@H]1C(=O)COC(=O)C(C)(C)C [Clocortolone pivalate] | 107 ± 4% | 100 ± 5.7% |
| OC(c1cc(C(F)(F)F)nc2c(C(F)(F)F)cccc12)C1CCCCN1 (stereo not given) [Mefloquine hydrochloride] | 99.9 ± 1.8% | 105 ± 3.5% |
| CNCCCC12CCC(c3ccccc31)c1ccccc12 [Maprotiline hydrochloride] | 93.6 ± 2.1% | 102 ± 1.9% |
| C[C@]12C=CC(=O)C=C1CC[C@H]1[C@@H]3C[C@@H](O)[C@](O)(C(=O)CO)[C@@]3(C)C[C@H](O)[C@@]12F [Triamcinolone] | 102 ± 1.9% | 101.9 ± 0.63% |
| CC1(C)O[C@@H]2C[C@H]3[C@@H]4CCC5=CC(=O)CC[C@]5(C)[C@@]4(F)[C@@H](O)C[C@]3(C)[C@]2(C(=O)CCl)O1 [Halcinonide] | 93.9 ± 1.8% | 96.6 ± 1.4% |
| CCN(CC)C(=O)/C(C#N)=C/c1cc(O)c(O)c([N+](=O)[O-])c1 [Entacapone] | 92.4 ± 6.7% | 86.6 ± 12% |
| C[C@@H](O)[C@H]1C(=O)N2C(C(=O)O)=C(S[C@@H]3CN[C@H](C(=O)N(C)C)C3)[C@H](C)[C@H]12 [Meropenem] | 98.6 ± 7.2% | 96.7 ± 7.1% |
| CC(=O)O[C@H]1C[C@@H]2CC[C@@H]3[C@H](CC[C@@]4(C)[C@H]3C[C@H]([N+]3(C)CCCCC3)[C@@H]4OC(C)=O)[C@@]2(C)C[C@@H]1N1CCCCC1 [Vecuronium bromide] | 103 ± 4.1% | 98.3 ± 2.4% |
| CCN(CC)CCOC(=O)c1ccc(N)cc1 [Procaine hydrochloride] | 102 ± 4.3% | 102 ± 2.3% |
| CC[C@H](C)C(=O)O[C@H]1C[C@@H](C)C=C2C=C[C@H](C)[C@H](CC[C@@H]3C[C@@H](O)CC(=O)O3)[C@H]21 [Lovastatin] | 94.8 ± 5.2% | 94.5 ± 3.2% |
| Cc1c(C)c2c(c(C)c1O)CCC(C)(C(=O)O)O2 (stereo not given) [Trolox] | 95.8 ± 1.8% | 95.75 ± 0.94% |
| CC(=O)N[C@@H](CS)C(=O)O [Acetylcysteine] | 95.78 ± 0.16% | 96.91 ± 0.21% |
| CC(=O)O[C@H]1C[C@@]2(C)[C@@H](C[C@@H](O)[C@H]3[C@@]4(C)CC[C@@H](O)[C@@H](C)[C@@H]4CC[C@@]32C)/C1=C(\CCC=C(C)C)C(=O)O [Fusidic acid sodium salt] | 110.4 ± 0.48% | 113.6 ± 0.94% |
| CN(C)CCn1nnnc1SCC1=C(C(=O)O)N2C(=O)[C@@H](NC(=O)Cc3csc(N)n3)[C@H]2SC1 [Cefotiam hydrochloride] | 102 ± 1.4% | 102.2 ± 0.73% |
| NCCCC(O)(P(=O)(O)O)P(=O)(O)O [Alendronate sodium] | 103 ± 1.9% | 104 ± 3.4% |

| Structure (SMILES) | growth yield (40 h) | growth yield (72 h) |
| --- | --- | --- |
| Nc1ccc(S(=O)(=O)Nc2cnc3ccccc3n2)cc1 [Sulfaquinoxaline sodium salt] | 105 ± 5.4% | 108 ± 5.5% |
| CNC[C@H](O)[C@@H](O)[C@H](O)[C@H](O)CO [Meglumine] | 100 ± 5.2% | 95.8 ± 2.8% |
| C[C@H]1NC(=O)NC1=O [Methylhydantoin-5-(D)] | 95.3 ± 0.95% | 95 ± 2.1% |
| Cc1ccnc(NS(=O)(=O)c2ccc(N)cc2)n1 [Sulfamerazine] | 94.4 ± 1.3% | 94.7 ± 0.1% |
| NC(=O)OCC(COC(N)=O)c1ccccc1 [Felbamate] | 102 ± 4% | 101 ± 2.6% |
| N=C(N)NCc1cccc(I)c1 [Iobenguane sulfate] | 105 ± 1.9% | 106 ± 1.1% |
| CC(C)n1c(/C=C/C(O)CC(O)CC(=O)O)c(-c2ccc(F)cc2)c2ccccc21 (stereo not given) [Fluvastatin sodium salt] | 1.91 ± 1.3% | 1.78 ± 0.94% |
| CCCCNc1cc(C(=O)O)cc(S(N)(=O)=O)c1Oc1ccccc1 [Bumetanide] | 98.2 ± 2.2% | 104 ± 1.8% |
| CNC(=O)c1c(I)c(C(=O)NCC(=O)Nc2c(I)c(C(=O)O)c(I)c(C(=O)NCCO)c2I)c(I)c(N(C)C(C)=O)c1I [Ioxaglic acid] | 105 ± 5.2% | 101 ± 2.2% |
| CC(=O)Oc1ccccc1C(=O)Oc1ccccc1C(=O)O [Acetylsalicylsalicylic acid] | 95.3 ± 4.5% | 88.8 ± 4.9% |
| Nc1ncnc2c1ncn2C1OC(COP(=O)(O)O)C(O)C1O (stereo not given) [Adenosine 5'-monophosphate monohydrate] | 106 ± 1.3% | 107 ± 3.6% |
| C[C@@H]1C[C@H]2[C@@H]3CCC4=CC(=O)C=C[C@]4(C)[C@@]3(Cl)[C@@H](O)C[C@]2(C)[C@@]1(OC(=O)c1ccco1)C(=O)CCl [Mometasone furoate] | 96.6 ± 1.3% | 95.86 ± 0.21% |
| CN1CCCN(C(c2ccccc2)c2ccc(Cl)cc2)CC1 (stereo not given) [Homochlorcyclizine dihydrochloride] | 86.4% | 96.8 ± 0.73% |
| CCOc1ccc2nc(S(N)(=O)=O)sc2c1 [Ethoxzolamide] | 113 ± 14% | 110 ± 11% |
| CCCCc1ccc2[nH]c(NC(=O)OC)nc2c1 [Parbendazole] | 53.4 ± 1.9% | 95.9 ± 10% |
| C/C(=C\C(=O)OCCCCCCCCC(=O)O)C[C@@H]1OC[C@H](C[C@@H]2O[C@H]2[C@@H](C)[C@H](C)O)[C@@H](O)[C@H]1O [Mupirocin] | 6.04 ± 2.9% | 39.5 ± 8.5% |
| CN/C(=N\CCSCc1nc[nH]c1C)NC#N [Cimetidine] | 103 ± 4.6% | 102 ± 3.8% |
| CCc1cccc(CC)c1NC(=O)CN(CC(=O)O)CC(=O)O [Etifenin] | 100.2 ± 0.48% | 99 ± 2.3% |
| O=C(O)c1cc(/N=N/c2ccc(S(=O)(=O)Nc3ccccn3)cc2)ccc1O [Sulfasalazine] | 109 ± 2.9% | 111.4 ± 0.21% |
| CC(N)CCCC(C)(C)O (stereo not given) [Heptaminol hydrochloride] | 101 ± 3.6% | 101 ± 2% |
| CN1CCCN=C1/C=C/c1cccc(O)c1 [Oxantel pamoate] | 93.4 ± 0.64% | 99.8 ± 1.1% |
